Many of the other results were omitted from the sample, so the strongest signals are more common in it than they were.
Experiments:
Test in all cases: glycan array binding signal (z-score within array); higher = stronger binding
Settings in all cases: glycan notation: IUPAC condensed, linker removed
[1] = molecular target: Fuc(a1-2)Gal(b1-3)GlcNAc(b1-3)GalNAc
How it was run: (§1)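 From the Consortium for Functional Glycomics database, 3228 arrays were curated, keeping only those whose protein sequence was available. Binding is given as a within-array Z-score averaged across arrays sharing a protein sequence and across linkers. Negative Z-scores can be read as non-binding.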

[2] = molecular target: Fuc(a1-2)Gal(b1-4)GlcNAc(b1-2)[Fuc(a1-2)Gal(b1-4)GlcNAc(b1-4)]Man(a1-3)[Fuc(a1-2)Gal(b1-4)GlcNAc(b1-2)Man(a1-6)]Man(b1-4)GlcNAc(b1-4)GlcNAc
How it was run: as §1

[3] = molecular target: Fuc(a1-2)[Gal(a1-3)]Gal(b1-3)GlcNAc
How it was run: as §1

[4] = molecular target: Fuc(a1-2)[GalNAc(a1-3)]Gal(b1-3)GlcNAc(b1-2)Man(a1-3)[Fuc(a1-2)[GalNAc(a1-3)]Gal(b1-3)GlcNAc(b1-2)Man(a1-6)]Man(b1-4)GlcNAc(b1-4)GlcNAc
How it was run: as §1

[5] = molecular target: Fuc(a1-2)[GalNAc(a1-3)]Gal(b1-4)GlcNAc(b1-2)Man
How it was run: as §1

[6] = molecular target: Fuc(a1-2)[GalNAc(a1-3)]Gal(b1-4)GlcNAc(b1-2)Man(a1-3)[Fuc(a1-2)[GalNAc(a1-3)]Gal(b1-4)GlcNAc(b1-2)Man(a1-6)]Man(b1-4)GlcNAc(b1-4)GlcNAc
How it was run: as §1

[7] = molecular target: Fuc(a1-2)[GalNAc(a1-3)]Gal(b1-4)GlcNAc(b1-3)Gal(b1-4)GlcNAc
How it was run: as §1

[8] = molecular target: Fuc(a1-2)[GalNAc(a1-3)]Gal(b1-4)GlcNAc(b1-3)GalNAc
How it was run: as §1

[9] = molecular target: Fuc(a1-2)[GalNAc(a1-3)]Gal(b1-4)GlcNAc(b1-6)GalNAc
How it was run: as §1

[10] = molecular target: Fuc(a1-2)[GalNAc(b1-3)]Gal
How it was run: as §1

Fuc(a1-3)GlcNAc = molecular target: Fuc(a1-3)GlcNAc
How it was run: as §1

[11] = molecular target: Fuc(a1-3)[Gal3S(b1-4)]GlcNAc
How it was run: as §1

[12] = molecular target: Gal(a1-3)Gal(b1-4)GlcNAc(b1-2)Man
How it was run: as §1

[13] = molecular target: Gal(a1-3)Gal(b1-4)GlcNAc(b1-6)GalNAc
How it was run: as §1

[14] = molecular target: Gal(a1-4)Gal(b1-4)GlcNAc(b1-3)Gal(b1-4)Glc
How it was run: as §1

Gal(b1-2)Gal = molecular target: Gal(b1-2)Gal
How it was run: as §1

[15] = molecular target: Gal(b1-3)GlcNAc(a1-6)Gal(b1-4)GlcNAc
How it was run: as §1

[16] = molecular target: Gal(b1-3)[Fuc(a1-4)]GlcNAc(b1-2)Man
How it was run: as §1

[17] = molecular target: Gal(b1-3)[Fuc(a1-4)]GlcNAc(b1-3)Gal(b1-3)[Fuc(a1-4)]GlcNAc
How it was run: as §1

[18] = molecular target: Gal(b1-4)GlcNAc(b1-2)[Gal(b1-4)GlcNAc(b1-4)]Man(a1-3)[Gal(b1-4)GlcNAc(b1-2)Man(a1-6)]Man(b1-4)GlcNAc(b1-4)GlcNAc
How it was run: as §1

[19] = molecular target: Gal(b1-4)GlcNAc(b1-2)[Gal(b1-4)GlcNAc(b1-6)]Man(a1-6)[GlcNAc(b1-4)][Gal(b1-4)GlcNAc(b1-2)Man(a1-3)]Man(b1-4)GlcNAc(b1-4)GlcNAc
How it was run: as §1

[20] = molecular target: Gal(b1-4)GlcNAc(b1-3)Gal(b1-3)GalNAc
How it was run: as §1

[21] = molecular target: Gal(b1-4)GlcNAc(b1-3)Gal(b1-4)GlcNAc(b1-3)Gal(b1-4)GlcNAc(b1-3)Gal(b1-4)GlcNAc(b1-3)Gal(b1-4)GlcNAc(b1-2)Man(a1-3)[Gal(b1-4)GlcNAc(b1-3)Gal(b1-4)GlcNAc(b1-3)Gal(b1-4)GlcNAc(b1-3)Gal(b1-4)GlcNAc(b1-3)Gal(b1-4)GlcNAc(b1-2)Man(a1-6)]Man(b1-4)GlcNAc(b1-4)GlcNAc
How it was run: as §1

Gal4S6S(b1-4)GlcNAc = molecular target: Gal4S6S(b1-4)GlcNAc
How it was run: as §1

[22] = molecular target: GalNAc(a1-3)GalNAc(b1-3)Gal(a1-4)Gal(b1-4)Glc
How it was run: as §1

GalNAc(b1-4)Gal(b1-4)Glc = molecular target: GalNAc(b1-4)Gal(b1-4)Glc
How it was run: as §1

[23] = molecular target: GalNAc(b1-4)GlcNAc(b1-2)Man
How it was run: as §1

[24] = molecular target: GalNAc(b1-4)GlcNAc(b1-3)GalNAc(b1-4)GlcNAc
How it was run: as §1

GalNAc(b1-4)GlcNAc6S = molecular target: GalNAc(b1-4)GlcNAc6S
How it was run: as §1

GalNAc6S(b1-4)GlcNAc = molecular target: GalNAc6S(b1-4)GlcNAc
How it was run: as §1

[25] = molecular target: GlcA3S(b1-3)Gal(b1-4)GlcNAc(b1-3)Gal(b1-4)Glc
How it was run: as §1

[26] = molecular target: GlcNAc(a1-4)Gal(b1-4)GlcNAc(b1-3)Gal(b1-4)[Fuc(a1-3)]GlcNAc(b1-3)Gal(b1-4)[Fuc(a1-3)]GlcNAc
How it was run: as §1

[27] = molecular target: GlcNAc(b1-2)[GlcNAc(b1-6)]Man(a1-6)[GlcNAc(b1-2)Man(a1-3)]Man(b1-4)GlcNAc(b1-4)[Fuc(a1-6)]GlcNAc
How it was run: as §1

[28] = molecular target: GlcNAc(b1-3)Gal(b1-4)GlcNAc
How it was run: as §1

[29] = molecular target: GlcNAc(b1-3)Gal(b1-4)GlcNAc(b1-3)Gal(b1-4)GlcNAc(b1-3)Gal(b1-4)GlcNAc(b1-3)Gal(b1-4)GlcNAc(b1-2)Man(a1-3)[GlcNAc(b1-3)Gal(b1-4)GlcNAc(b1-3)Gal(b1-4)GlcNAc(b1-3)Gal(b1-4)GlcNAc(b1-3)Gal(b1-4)GlcNAc(b1-2)Man(a1-6)]Man(b1-4)GlcNAc(b1-4)[Fuc(a1-6)]GlcNAc
How it was run: as §1

[30] = molecular target: GlcNAc(b1-3)Gal(b1-4)GlcNAc(b1-6)[GlcNAc(b1-3)Gal(b1-3)]GalNAc
How it was run: as §1

GlcNAc(b1-6)GalNAc = molecular target: GlcNAc(b1-6)GalNAc
How it was run: as §1

[31] = molecular target: Man(a1-2)Man(a1-3)[Man(a1-2)Man(a1-6)]Man(a1-6)[Man(a1-2)Man(a1-2)Man(a1-3)]Man(b1-4)GlcNAc(b1-4)GlcNAc
How it was run: as §1

Man(b1-4)GlcNAc = molecular target: Man(b1-4)GlcNAc
How it was run: as §1

[32] = molecular target: Neu5Ac(a2-3)Gal(b1-3)GalNAc6S
How it was run: as §1

[33] = molecular target: Neu5Ac(a2-3)Gal(b1-4)[Fuc(a1-3)]GlcNAc(b1-3)Gal(b1-4)GlcNAc
How it was run: as §1

Neu5Ac(a2-3)GalNAc = molecular target: Neu5Ac(a2-3)GalNAc
How it was run: as §1

[34] = molecular target: Neu5Ac(a2-6)Gal(b1-4)GlcNAc(b1-3)Gal(b1-3)GlcNAc
How it was run: as §1

Neu5Ac(a2-6)GalNAc = molecular target: Neu5Ac(a2-6)GalNAc
How it was run: as §1

[35] = molecular target: Neu5Ac(a2-8)Neu5Ac(a2-3)[GalNAc(b1-4)]Gal(b1-4)Glc
How it was run: as §1

[36] = molecular target: Neu5Ac(a2-8)Neu5Ac(a2-8)Neu5Ac
How it was run: as §1

[37] = molecular target: Neu5Ac9Ac(a2-3)Gal(b1-4)GlcNAc
How it was run: as §1

B1: mASGPR (Macaca mulatta) (protein)
chain: GASSQNSKFQRDLVTLRTDFSNFTSNTVAEIQALTSQGSSVEEMIASLKAEVEVIKQEQQAVHSEMLLRVQRLMQDLNKLTCQVATLKNNASTERTCCPVNWVEHQDSCYWFSRSGMPWAEAEKHCQLENAHLVVINSREEQNFVQEHLSFAYTWMGLSDREGAWKWVDGTDYETGFQNWKPGQPDDWQGHGLGGGEDCAHFHPDGRWNDDVCQRPYYWVCEAGLTQASQESHT[in this place human IgG1 Fc]
glycan array binding signal (z-score) [1]: -0.506 | glycan array binding signal (z-score) [2]: 0.141 | glycan array binding signal (z-score) [3]: 0.419 | glycan array binding signal (z-score) [4]: 2.52 | glycan array binding signal (z-score) [5]: 2.1 | glycan array binding signal (z-score) [6]: 2.53 | glycan array binding signal (z-score) [7]: 1.98 | glycan array binding signal (z-score) [8]: 1.49 | glycan array binding signal (z-score) [9]: 2.48 | glycan array binding signal (z-score) [10]: 2.51 | glycan array binding signal (z-score) (Fuc(a1-3)GlcNAc): -0.584 | glycan array binding signal (z-score) [11]: -0.254 | glycan array binding signal (z-score) [12]: -0.493 | glycan array binding signal (z-score) [13]: 2.73 | glycan array binding signal (z-score) [14]: -0.635 | glycan array binding signal (z-score) (Gal(b1-2)Gal): 0.251 | glycan array binding signal (z-score) [15]: 0.154 | glycan array binding signal (z-score) [16]: 1.53 | glycan array binding signal (z-score) [17]: -0.325 | glycan array binding signal (z-score) [18]: -0.794 | glycan array binding signal (z-score) [19]: -0.263 | glycan array binding signal (z-score) [20]: -0.77 | glycan array binding signal (z-score) [21]: 0.03 | glycan array binding signal (z-score) (Gal4S6S(b1-4)GlcNAc): -0.57 | glycan array binding signal (z-score) [22]: 1.89 | glycan array binding signal (z-score) (GalNAc(b1-4)Gal(b1-4)Glc): 0.433 | glycan array binding signal (z-score) [23]: 2.44 | glycan array binding signal (z-score) [24]: 1.97 | glycan array binding signal (z-score) (GalNAc(b1-4)GlcNAc6S): 2.72 | glycan array binding signal (z-score) (GalNAc6S(b1-4)GlcNAc): 2.46 | glycan array binding signal (z-score) [25]: -0.765 | glycan array binding signal (z-score) [26]: 0.739 | glycan array binding signal (z-score) [27]: 0.032 | glycan array binding signal (z-score) [28]: -0.753 | glycan array binding signal (z-score) [29]: 0.506 | glycan array binding signal (z-score) [30]: -0.956 | glycan array binding signal (z-score) (GlcNAc(b1-6)GalNAc): 2.45 | glycan array binding signal (z-score) [31]: -0.129 | glycan array binding signal (z-score) (Man(b1-4)GlcNAc): -0.77 | glycan array binding signal (z-score) [32]: 0.268 | glycan array binding signal (z-score) [33]: -0.521 | glycan array binding signal (z-score) (Neu5Ac(a2-3)GalNAc): -0.492 | glycan array binding signal (z-score) [34]: -0.776 | glycan array binding signal (z-score) (Neu5Ac(a2-6)GalNAc): 2.81 | glycan array binding signal (z-score) [35]: 2.42 | glycan array binding signal (z-score) [36]: -0.851 | glycan array binding signal (z-score) [37]: -0.867

— the supplement of paper PMC8728848
